Reference: PubChem BioAssay AID588342 (National Center for Advancing Translational Sciences (NCATS), 2011)
Screen size: about 360,000 compounds; about 25,000 (6.9%) were called active. The inconclusive results got no clear call from the source; some entries with a clear call stand among them for comparison. Calls come from the whole dose curve; as a rule, active = well fitted inhibition curve with a large enough effect; inconclusive = small, poorly fitted or top-dose-only effect; inactive = flat fitted curve, though single readings scatter. Potencies beside an inconclusive call are fits to weak or partial responses and may not hold up.

target: Luciferin 4-monooxygenase (Photinus pyralis) (UniProt P08659); assay: qHTS profiling assay for firefly luciferase inhibitor/activator using purifed enzyme and Km concentrations of substrates (counterscreen for miR-21 project); conditions: purified FLuc, luminescence inhibition; series mostly up to 57.5 µM; activity change, negative = inhibition: at the top concentration; note: nearly all actives have a fitted effect of over 55% in size;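 for activity change, negative = inhibition: plate controls were vehicle for no effect and reference inhibitor for full effect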
Procedure, shortened: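 Biochemical qHTS of compounds, final roughly 60 µM downward over six points, against 10 nM purified firefly luciferase using Km concentrations of substrates (10 uM D-luciferin, 10 uM ATP) in Tris acetate pH 7.5 buffer; luminescence output.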
Potency is the fitted concentration of half-maximal effect; tags give direction and shape of the fitted curve.

Chain of UniProt P08659 (P08659 whole entry, looked up): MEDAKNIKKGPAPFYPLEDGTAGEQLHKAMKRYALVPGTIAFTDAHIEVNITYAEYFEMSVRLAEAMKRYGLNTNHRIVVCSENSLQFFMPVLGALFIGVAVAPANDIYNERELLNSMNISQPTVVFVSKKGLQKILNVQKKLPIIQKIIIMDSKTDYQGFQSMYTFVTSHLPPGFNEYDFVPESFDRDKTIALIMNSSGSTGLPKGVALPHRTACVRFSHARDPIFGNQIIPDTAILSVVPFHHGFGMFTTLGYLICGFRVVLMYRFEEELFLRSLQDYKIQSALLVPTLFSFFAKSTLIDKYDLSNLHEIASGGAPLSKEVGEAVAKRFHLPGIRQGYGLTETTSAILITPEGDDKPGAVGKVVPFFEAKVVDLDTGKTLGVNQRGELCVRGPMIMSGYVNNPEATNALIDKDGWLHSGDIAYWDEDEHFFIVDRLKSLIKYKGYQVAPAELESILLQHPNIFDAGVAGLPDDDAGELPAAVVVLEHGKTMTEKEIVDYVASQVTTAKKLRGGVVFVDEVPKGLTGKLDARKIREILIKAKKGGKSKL

SMILES | Potency | activity change, negative = inhibition
CC(C)Cc1csc(NC(=O)c2ccccc2Cl)c1C(=O)O | inconclusive: 37.9 µM [inhibitor, partial curve, poor fit] | –
Cc1ccc(Nc2ncnc3c2cnn3-c2ccc(C)cc2)cc1 | inconclusive: 3.01 µM [inhibitor, partial curve] | –
COCCNC(=O)CCCn1c(=O)[nH]c2ccsc2c1=O | – | inactive: -0.716%
Cc1ccc(NC2=C(NC(=O)c3ccccc3)C(=O)c3ccccc3C2=O)cc1Cl | inconclusive: 26.9 µM [inhibitor, single point] | –
Cc1ccc(NC(=O)c2ccccc2)cc1OC(=O)c1ccccc1 | inconclusive: 16.9 µM [inhibitor, partial curve] | –
Cc1nc2ccccc2cc1OCc1ccc(F)cc1 | inconclusive: 30.1 µM [inhibitor, single point] | –
COc1ccc(-c2cc(C(=O)N/N=C(\C)c3ccco3)c3ccccc3n2)c(OC)c1 | inconclusive: 26.9 µM [inhibitor, partial curve, poor fit] | –
Cc1ccc(-c2csc3nc(SCC(=O)Nc4ccc(Cl)c(C(=O)O)c4)[nH]c(=O)c23)cc1 | inconclusive: 23.9 µM [inhibitor, single point] | –
O=C(c1ccccc1F)N1CCC(c2nc3c(nnn3Cc3cccc(F)c3)c(=O)[nH]2)CC1 | – | inactive: -15.3%
COc1ccc2c(COC(=O)c3cccc(S(=O)(=O)NCC(C)C)c3)cc(=O)oc2c1 | inconclusive: 9.53 µM [inhibitor, partial curve] | –
CCOc1ccc(NC(=O)NNC(=O)c2ccc(CC)s2)cc1 | inconclusive: 0.0151 µM [inhibitor, partial curve, poor fit] | –
CCc1nnc(NC(=O)CSc2nc3ccc(OC)cc3[nH]2)s1 | inconclusive: 30.1 µM [inhibitor, single point] | –
CCCCc1ccc(-c2ccc(Br)cc2O)nc1 | active: 0.849 µM | –
COc1ncccc1-c1nnn(-c2ccc(Cl)nc2)n1 | inconclusive: 21.3 µM [inhibitor, single point] | –
CC(=O)Nc1ccn(-c2ccccc2)n1 | inconclusive: 16.9 µM [inhibitor, partial curve] | –
COc1cc(Cl)ccc1OCc1cc(C(=O)N2CCCCCC2)no1 | inconclusive: 37.9 µM [inhibitor, single point] | –
CCOc1ccccc1NC(=O)n1ncc2cc(Cl)ccc21 | – | inactive: -6.72%
O=C(Nc1ccc2c(c1)OCCO2)N1CCN(Cc2ccccc2)CC1 | active: 13.5 µM | –
COc1cccc(C(=O)NCC2CCCN2S(=O)(=O)c2ccccc2)c1 (stereo not drawn) | – | inactive: -3.52%
C/C(=N\NC(=O)c1ccc(C)cc1C)c1ccc2c(c1)OCO2 | inconclusive: 30.1 µM [inhibitor, partial curve, poor fit] | –
CCCn1nnc(NC(=O)c2ccc(Cl)cc2Cl)n1 | active: 19 µM | –
O=C(COC(=O)c1cccnc1Cl)c1ccc(OC(F)F)cc1 | active: 5.36 µM | –
CC(O)CNCCCCOc1ccc(OCc2ccccc2)cc1 (stereo not drawn) | inconclusive: 26.9 µM [inhibitor, single point] | –
CC(C)CCNC(=O)c1ccc(OC2CCN(S(=O)(=O)N(C)C)CC2)cc1 | inconclusive: 26.9 µM [inhibitor, partial curve, poor fit] | –
Cc1ccc(Nc2cc(C)nc(N3CCOCC3)n2)cc1 | inconclusive: 26.9 µM [inhibitor, partial curve] | –

SMILES | Potency | activity change, negative = inhibition
COc1ccc(C(=O)NCCCOC(C)C)cc1OC1CCN(C(C)=O)CC1 | inconclusive: 26.9 µM [inhibitor, partial curve] | –
O=C(c1ccco1)N1CCCN(Cc2cn[nH]c2-c2ccc(-c3ccccc3)cc2)CC1 | inconclusive: 37.9 µM [inhibitor, partial curve, poor fit] | –
COC(=O)c1ccccc1NC(=O)CSc1nnnn1-c1ccc(C)cc1C | inconclusive: 19 µM [inhibitor, partial curve] | –
O=C(CSc1nnc(NC(=O)C2CC2)s1)Nc1ccccc1Cl | – | inactive: -1.7%
CC(C)C[C@@H](CO)N1CCN(Cc2cccnc2)CCC1=O | – | inactive: 4.77%
O=C(COc1ccc([N+](=O)[O-])cc1)NNC(=O)Nc1cccc(F)c1 | – | inactive: -2.15%
CCOc1ccc(N2C(=O)C3C4C=CC([C@H]5CC45)[C@@H]3C2=O)cc1 (stereo partly drawn) | inconclusive: 15.1 µM [inhibitor, partial curve] | –
CCOc1ccc(-c2nnc(SCC(=O)Nc3cc(F)ccc3F)o2)cc1 | – | inactive: -15.2%
Cn1cnnc1SCc1nc(N)nc(Nc2ccccc2)n1 | inconclusive: 26.9 µM [inhibitor, single point] | –
CN(Cc1ccccc1)C(=O)c1[nH]cnc1C(=O)Nc1ccccc1 | inconclusive: 6.01 µM [inhibitor, single point] | –
COc1ccc(C(=O)Nc2ccncc2)c(OC)c1 | inconclusive: 21.3 µM [inhibitor, partial curve, poor fit] | –
COc1ccc(C(=O)Nc2nnc(-c3cccs3)s2)cc1 | active: 1.2 µM | –
C/C(=N\NC(=O)c1cc(O)cc(O)c1)c1ccc(NC(=O)Cc2ccccc2)cc1 | inconclusive: 21.3 µM [inhibitor, single point] | –
CCOC(=O)CC1(NC(=O)C2CCC(=O)N(CCc3ccccc3)C2)CCCCC1 (stereo not drawn) | – | inactive: -14%
COc1ccc(C(=O)C2CCN(C(=O)Nc3ccccc3C)CC2)cc1 | inconclusive: 19 µM [inhibitor, partial curve] | –
CCOC(=O)C1(Cc2ccccc2C)CCCN(C(=O)CCc2cccnc2)C1 (stereo not drawn) | inconclusive: 37.9 µM [inhibitor, partial curve, poor fit] | –
O=C1c2ccccc2S(=O)(=O)N1CC1CC(c2ccccc2Cl)=NO1 (stereo not drawn) | active: 2.69 µM | –
CCCCSc1cc(=O)[nH]c(N)n1 | – | inactive: -0.173%
Nc1n[nH]c(N)c1N=Nc1ccc2c(c1)OCO2 | active: 12 µM | –
O=C(/C=C/c1ccccc1O)c1ccco1 | active: 16.9 µM | –
COc1ccc(S(=O)(=O)N2CCOCC2)cc1NC(=O)CNC(=O)c1cccs1 | – | inactive: -2.31%
O=C(Nc1ccc2c(c1)CCC2)c1ccccc1Br | active: 4.78 µM | –
CCOC(=O)c1ccc(-c2cccc(C(F)(F)F)c2)nc1C | inconclusive: 37.9 µM [inhibitor, single point] | –
CN1c2ccsc2C(=O)/C(=C\Nc2cccc(C(F)(F)F)c2)S1(=O)=O | inconclusive: 21.3 µM [inhibitor, partial curve, poor fit] | –
CN1C(=O)c2c(sc3c2CCCC3)NC1c1ccccc1O (stereo not drawn) | inconclusive: 37.9 µM [inhibitor, partial curve, poor fit] | –

SMILES | Potency | activity change, negative = inhibition
COC(=O)c1cccnc1Oc1ccccc1 | – | inactive: -6.66%
Cc1cccc(C(=O)OC(C)CN2CCN(C)CC2)c1 (stereo not drawn) | inconclusive: 23.9 µM [inhibitor, partial curve] | –
O=C(NCC1COc2ccccc2O1)c1ccc(Br)s1 (stereo not drawn) | inconclusive: 19 µM [inhibitor, partial curve] | –
Cn1cc(Br)c(C(=O)NC2C3CC4CC(C3)CC2C4)n1 (stereo not drawn) | inconclusive: 23.9 µM [inhibitor, single point] | –
Clc1ccc(Cn2nc(-c3ccccc3)nc2-c2ccccc2)cc1 | active: 15.1 µM | –
Cc1ccc(NC(=O)c2noc3c2CCC3)cc1C | active: 2.39 µM | –
CNc1oc(/C=C/c2ccccc2)nc1C#N | active: 2.69 µM | –
Cc1cc(C)cc(NC(=O)CCc2c(C)nn(-c3ccc(N4CCCCC4)nn3)c2C)c1 | active: 4.78 µM | –
COc1cccc(-c2nc(CS(=O)(=O)CC(=O)NCCc3ccc(OC)cc3OC)c(C)o2)c1 | inactive | –
CN(c1ccccc1)S(=O)(=O)c1cccc(NS(=O)(=O)c2ccc(/C=C/C(=O)O)cc2)c1 | inconclusive: 37.9 µM [inhibitor, single point] | –
Cc1c(C)c(C)c(CN2CCCC2)c(C)c1C | – | inactive: 0.636%
O=C(/C=C/c1ccccc1)NC1CCSC1=O (stereo not drawn) | inconclusive: 26.9 µM [inhibitor, partial curve, poor fit] | –
CCNc1nnc(CSc2nc3ccccc3s2)s1 | inconclusive: 26.9 µM [inhibitor, single point] | –
CCOC(=O)c1scc(-c2ccccc2)c1S(=O)(=O)Nc1ccc(N(C)C)cc1 | inconclusive: 37.9 µM [inhibitor, partial curve, poor fit] | –
CC(=O)c1ccc(NC(=O)C[n+]2cccc(C)c2)cc1 | – | inactive: 2.23%
Cn1c(C(=O)N2CCCc3ccccc32)cc2sccc21 | inconclusive: 21.3 µM [inhibitor, partial curve, poor fit] | –
Cn1c(=O)oc2cc(S(=O)(=O)Nc3ccc4c(c3)OCO4)ccc21 | inconclusive: 21.3 µM [inhibitor, partial curve, poor fit] | –
Cc1cccc(NC(=O)CSc2nnc(-c3ccco3)c(-c3ccco3)n2)c1 | inconclusive: 16.9 µM [inhibitor, partial curve] | –
CCC(=O)Nc1ccc2c(c1)nc1n2CCSC1 | inconclusive: 23.9 µM [inhibitor, partial curve, poor fit] | –
O=C(COc1ccccc1)Nc1ccc(-c2ccc(N3CCOCC3)nn2)cc1 | inconclusive: 23.9 µM [inhibitor, partial curve, poor fit] | –
CN1CCc2c(n(CC(O)CN3CCN(CCO)CC3)c3ccccc23)C1=O (stereo not drawn) | – | inactive: 1.38%
O=S(=O)(Nc1nc2ccccc2nc1Nc1ccc(N2CCOCC2)cc1)c1cc(Cl)ccc1Cl | active: 15.1 µM | –
O=C(COc1ccc2ccccc2c1)N1CCN(C(=O)c2ccc([N+](=O)[O-])cc2)CC1 | inconclusive: 21.3 µM [inhibitor, partial curve, poor fit] | –
